From article PMC6212790 come the findings set out here.

The other results are listed elsewhere or left out. At the low end of the ranking the order means little.

This test has as its target T1, GST-Rok (full length) (UniProt O34857).
T1 sequence: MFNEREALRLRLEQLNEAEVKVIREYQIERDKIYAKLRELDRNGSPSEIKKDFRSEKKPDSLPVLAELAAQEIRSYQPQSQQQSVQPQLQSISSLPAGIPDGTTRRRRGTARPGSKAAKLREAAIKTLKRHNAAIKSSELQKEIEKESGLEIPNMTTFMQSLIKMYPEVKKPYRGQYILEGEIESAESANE
Briefly: protein binding microarray.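 Further: rank score from −0.5 (least bound) to 0.5 (best bound).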 The settings on record: Rok is a gene silencer of Bacillus subtilis; high values mean tight binding; most listed sequences are background and not binding sites; double strand, one strand shown.
As to GGCTAAAA, the binding signal was 0.0026 E-score.
The sequence ACGTGTAG registered a binding signal of 0.0421 E-score.
Sequence ACTAACCG showed a binding signal of -0.0761 E-score.
GTGGCAAC registered a binding signal of -0.17 E-score.
In the case of ATATCCTC, the binding signal was 0.0547 E-score.
Take ATCGACCG: the binding signal amounted to 0.0303 E-score.
In the case of AGCAGGAG, the binding signal is -0.288 E-score.
Consider GATTGTGA, for which the binding signal was -0.0953 E-score.
GTCGGTTA gave a binding signal of -0.00548 E-score.
CAAGATAC showed a binding signal of 0.15 E-score.
Take ACTGACAA: the binding signal was -0.0164 E-score.
In turn, CAGATCTA registered a binding signal of 0.223 E-score.
Turning to ACGACGTG, the binding signal is 0.0776 E-score.
In the case of TAGCTGAA, the binding signal is 0.159 E-score.
On to CTAGTGTC, for which the binding signal worked out at 0.0749 E-score.
TAAGGGAA had a binding signal of -0.061 E-score.
In turn, CGGGAGGC showed a binding signal of -0.303 E-score.
With TATGGGCA, the binding signal is -0.0796 E-score.
Sequence CCTGAACG had a binding signal of -0.257 E-score.
CTGAAGGC registered a binding signal of -0.186 E-score.
The same measure for AACCACCG: -0.212 E-score; for CATGAAAA: -0.0975 E-score; for CAATCTCC: 0.0032 E-score.
The same measure for GCGTATTA: 0.0897 E-score.
As for CAGGATAC, the binding signal worked out at 0.0188 E-score.
GGGCTAGA gave a binding signal of -0.115 E-score.
CTCCCCCA came in with a binding signal of -0.373 E-score.
For the sequence GCGTAAGC, the binding signal is -0.127 E-score.
For the sequence CACCACGA, the binding signal was -0.16 E-score.
Sequence ATTGAAAT came in with a binding signal of 0.207 E-score.
As for ACAAAATA, the binding signal amounted to 0.34 E-score.
On to AGCGGTAT, for which the binding signal was 0.321 E-score.
AAATCGGC registered a binding signal of 0.0274 E-score.
The same measure for ACAAATGT: 0.112 E-score.
GGTTAGCA registered a binding signal of 0.0592 E-score.
GCGTGAAC returned a binding signal of 0.00198 E-score.
In turn, AGTTCTCC registered a binding signal of 0.0135 E-score.
The same measure for GAACTCGC: -0.0505 E-score.
GCGTTCAC registered a binding signal of -0.164 E-score.
CATCGGTA displayed a binding signal of 0.157 E-score.
ACGTATCA: the binding signal came to 0.0936 E-score.
Sequence CAGTCGAG showed a binding signal of -0.0599 E-score.
With AATTTGTA, the binding signal turned out to be 0.352 E-score.
Consider CCATATAC, for which the binding signal amounted to 0.251 E-score.
As to AGTGGATA, the binding signal worked out at 0.135 E-score.
Turning to ATCCACTA, the binding signal is 0.182 E-score.
As for ACTGGATC, the binding signal is -0.0472 E-score.
Regarding CTCCTGGA, the binding signal is -0.0893 E-score.
The same measure for AGAACAGG: -0.0661 E-score.
The same measure for CGCAGCCG: -0.21 E-score.
Sequence CTCTAGGC came in with a binding signal of -0.146 E-score.
GCGCAGCC showed a binding signal of -0.368 E-score.
Regarding TGCAGCAA, the binding signal was 0.0559 E-score.
AAATCTGG came in with a binding signal of -0.0994 E-score.
Sequence GGGCCATA displayed a binding signal of -0.00464 E-score.
CTCAGGAG: the binding signal is -0.23 E-score.
The same measure for CCTTATCG: -0.135 E-score.
For CGGTGTCA, the binding signal is -0.119 E-score.
Sequence CGCGAGCA registered a binding signal of -0.0323 E-score.
Take AACATATG: the binding signal came out at 0.294 E-score.
The sequence CGTAAGAG came in with a binding signal of -0.00808 E-score.
AAGGGATG: the binding signal was -0.102 E-score.
The same measure for CGGCTAGA: -0.0329 E-score; for TACATTGA: 0.229 E-score.
On to ACGCACGG, for which the binding signal is -0.181 E-score.
The same measure for CGGTTTCC: -0.277 E-score; for AGTGAACG: -0.0491 E-score.
GAGCAACC yielded a binding signal of -0.256 E-score.
On to ACGTAGCT, for which the binding signal worked out at 0.268 E-score.
With CGAGGGAG, the binding signal is -0.331 E-score.
As to AGTTCAGA, the binding signal is 0.0641 E-score.
The sequence GAAGGGAA showed a binding signal of -0.156 E-score.
The same measure for CTGCAAAC: -0.0694 E-score; for ACCCTCAG: -0.249 E-score; for ACAAGGAA: -0.0483 E-score.
With TATCCCGA, the binding signal amounted to 0.0019 E-score.
Take CATCACAC: the binding signal is -0.0484 E-score.
Take CGCGTCCG: the binding signal was -0.384 E-score.
CAAATCCG showed a binding signal of -0.0659 E-score.
Regarding GCACATAA, the binding signal was determined as 0.0865 E-score.
The same measure for ATTTAAGC: 0.0741 E-score.
Sequence GAATCTAC yielded a binding signal of 0.425 E-score.
The same measure for TCGGATCA: 0.0532 E-score; for AGCCTCGA: -0.247 E-score; for AGCGTTCG: -0.262 E-score.
For the sequence GGAGCCCA, the binding signal was -0.322 E-score.
In turn, TCACTGAA displayed a binding signal of -0.0635 E-score.
As for AGTTACAG, the binding signal is 0.213 E-score.
The sequence GGTTTGAA returned a binding signal of -0.0955 E-score.
Sequence CAGAAATA registered a binding signal of 0.303 E-score.
The sequence ATAAGCCA registered a binding signal of -0.106 E-score.
The same measure for CATGTGCA: -0.0661 E-score; for GTGGCCTA: 0.0275 E-score; for ATTGCCAA: 0.0149 E-score.
Take AACCAATG: the binding signal is -0.129 E-score.
The sequence AAGTTGTC returned a binding signal of -0.0239 E-score.
ACCAGAGA gave a binding signal of -0.0288 E-score.
Take GAGAATGA: the binding signal is -0.0471 E-score.
CAAGTAAA gave a binding signal of 0.173 E-score.
In turn, AACTCAAT gave a binding signal of 0.296 E-score.
As to GCTGAATA, the binding signal was 0.228 E-score.
GGCATTAC gave a binding signal of -0.0173 E-score.
Sequence ATGGTTGC showed a binding signal of -0.15 E-score.
TACTTGCA came in with a binding signal of 0.142 E-score.
Sequence AAATGGCA showed a binding signal of 0.0453 E-score.
Regarding AGAATGGC, the binding signal is -0.0238 E-score.
ATTGTTCG showed a binding signal of 0.115 E-score.
In turn, AACGTCTG showed a binding signal of -0.369 E-score.
AACAGACA had a binding signal of 0.174 E-score.
The sequence ATGTTGAG yielded a binding signal of 0.0979 E-score.
The same measure for CCCGCTTA: -0.331 E-score.
CAATTCGA: the binding signal is -0.0322 E-score.
The same measure for ATCAGGAC: -0.0979 E-score; for CTGAATCC: -0.216 E-score; for ATGAGATC: 0.0598 E-score.
The same measure for ACATATAC: 0.289 E-score; for GAGCTGTA: -0.0291 E-score.
The sequence ATTTACTG displayed a binding signal of 0.287 E-score.
Consider CATCTTGC, for which the binding signal is -0.0781 E-score.
The sequence GTTGCTTA returned a binding signal of 0.0938 E-score.
For ACAGGCGA, the binding signal was -0.0185 E-score.
In turn, CCCCCACG gave a binding signal of -0.372 E-score.
On to CCTTAAAG, for which the binding signal is -0.0967 E-score.
ACTTCAGG came in with a binding signal of 0.166 E-score.
The same measure for ACGTCACG: 0.0609 E-score; for ATCTGCCA: -0.00399 E-score.
The same measure for AGGGTAAT: 0.149 E-score; for AGCGGCCA: -0.166 E-score; for ACAGTACT: 0.0536 E-score.
The same measure for AACCAAGT: 0.0344 E-score; for ACGCAAGG: -0.101 E-score.
ACAGGCTC had a binding signal of -0.245 E-score.
For GGTTTCAC, the binding signal is -0.247 E-score.
ACACAGGC: the binding signal is -0.179 E-score.
For the sequence GAACGTCA, the binding signal was -0.162 E-score.
CTACCGAC showed a binding signal of 0.107 E-score.
Sequence GATTGGAC had a binding signal of -0.151 E-score.
GAAATAAC had a binding signal of 0.252 E-score.
In turn, CAGATCTC came in with a binding signal of -0.058 E-score.
The sequence GAACGCCA displayed a binding signal of -0.0399 E-score.
CAAGGCAA came in with a binding signal of -0.218 E-score.
Take GCTTCGGA: the binding signal came out at 0.000115 E-score.
As to AGAATAAA, the binding signal was 0.000461 E-score.
For the sequence TTGAAAAA, the binding signal was 0.0918 E-score.
GTCACGTA had a binding signal of 0.0695 E-score.
For ATCCTATC, the binding signal was found to be 0.0996 E-score.
Sequence CGTGAGAG registered a binding signal of 0.0208 E-score.
The same measure for AGCTCCGA: -0.0243 E-score; for GCAGTGTA: 0.0987 E-score; for AAGTCGAT: 0.0686 E-score.
The sequence GCAGACCC had a binding signal of -0.295 E-score.
With AACAATAC, the binding signal worked out at 0.109 E-score.
For AGTGAAGC, the binding signal was -0.131 E-score.
As for CTATTCAG, the binding signal came to 0.125 E-score.
Consider CGTTGCGA, for which the binding signal was -0.105 E-score.
For the sequence ACAACTTC, the binding signal came to 0.0437 E-score.
Regarding CCAACCCA, the binding signal was -0.0381 E-score.
CACCTGAC yielded a binding signal of -0.144 E-score.
On to TATGCGCA, for which the binding signal came out at 0.194 E-score.
As for ATCGACGA, the binding signal came out at 0.0292 E-score.
ACGAGTCG yielded a binding signal of 0.0271 E-score.
Turning to ACGACCTG, the binding signal was -0.147 E-score.
The same measure for GCCGACAC: -0.219 E-score.
Sequence AAGACCAG displayed a binding signal of -0.221 E-score.
The same measure for AAACTTAT: 0.291 E-score; for CCCTTGGC: -0.199 E-score.
GCAAATAC: the binding signal was 0.193 E-score.
The same measure for CTTAAAGC: -0.0533 E-score; for ATGTTTAA: 0.0814 E-score.
As for GAAGTTGC, the binding signal was 0.0518 E-score.
As for ATAGTGCG, the binding signal came out at 0.138 E-score.
For the sequence GGACAACA, the binding signal is -0.0547 E-score.
